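Values below derive from 48-hour exposures of cells grown in 96-well plates, with endpoints linearly interpolated between the two concentrations bracketing the appropriate inhibition level. The concentration for 50% growth inhibition is given as GI50. TGI is the concentration that stops growth completely.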

In the assay the test system is NCI-H322M lung. The assay is described as follows: NCI anticancer screen, dose series, 48 h.
Consider `COc1cc2cc(C(=O)N3C[C@@H](CCl)c4c3cc(OC(=O)N3CCN(C)[C@@H]5CSSC[C@@H]53)c3ccccc43)[nH]c2c(OC)c1OC`, for which the GI50 was 0.244 µM and the TGI stood at 4.39 µM.

On to `COc1ccc(-c2cc(-c3cc(OC)c(OC)c(OC)c3)[nH]c(=O)c2C#N)cc1`, for which the GI50 is 6.69 µM and the TGI was over 100 µM.

Take `O=C(O)CCCCCCCCCCN1C(=O)/C(=C/c2cnc(-c3ccc(Cl)cc3)s2)SC1=S`: the GI50 was 1.85 µM and the TGI was 8.25 µM.

On to `NS(=O)(=O)c1ccc(N=Nc2c(O)n(CC(=O)Nc3ccccc3Cl)c3ccccc23)cc1`, for which the GI50 is 2.6 µM and the TGI amounted to 7.87 µM.
